Among all 370,000 compounds or so, about 150 (0.041%) were called active. Inconclusive results, whose numbers are uncertain, are shown with a selection of clear calls. Calls come from the whole dose curve; as a rule, active = well fitted inhibition curve with a large enough effect; inconclusive = small, poorly fitted or top-dose-only effect; inactive = flat fitted curve, though single readings scatter. Potencies of inconclusive entries are left out as doubtful fits.
Target: Beta-lactamase (Escherichia coli (strain K12)) (UniProt P00811)
Assay: qHTS Inhibitors of AmpC Beta-Lactamase (assay with detergent); note: nearly all actives have a fitted effect of over 25% in size
Details: AmpC hydrolysis of nitrocefin, absorbance 480 nm, 0.01% Triton; series mostly up to 114 µM
In short: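 AmpC (5.3 nM in the dispensed reagent) in 20 mM phosphate pH 7.0 with 0.01% (detergent screen) or 0.0001% Triton X-100 was preincubated with compounds for 15 min at room temperature. Nitrocefin was then added from an 800 uM solution, and hydrolysis was followed at 480 nm.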
Potency is the fitted concentration of half-maximal effect; tags give direction and shape of the fitted curve.

UniProt P00811, sequence (P00811 whole entry, looked up): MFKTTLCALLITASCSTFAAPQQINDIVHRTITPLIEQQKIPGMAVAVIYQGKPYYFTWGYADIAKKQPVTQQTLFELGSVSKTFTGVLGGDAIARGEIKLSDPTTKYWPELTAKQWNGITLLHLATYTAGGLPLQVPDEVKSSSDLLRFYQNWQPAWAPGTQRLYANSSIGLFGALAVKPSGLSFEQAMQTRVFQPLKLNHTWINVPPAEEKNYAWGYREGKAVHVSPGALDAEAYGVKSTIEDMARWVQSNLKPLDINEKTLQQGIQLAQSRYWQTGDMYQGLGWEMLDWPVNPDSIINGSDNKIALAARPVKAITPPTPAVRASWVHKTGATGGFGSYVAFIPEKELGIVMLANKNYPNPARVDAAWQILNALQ

| Structure (SMILES) | Potency |
| --- | --- |
| COC(=O)c1sc2nc(-c3ccco3)ccc2c1N | inconclusive [inhibitor, single point] |
| COc1ccc(CNC(=O)CN(CC2CCCO2)C(=O)CNS(=O)(=O)c2ccc(F)cc2)cc1 (stereo unspecified) | inactive |
| COc1ccccc1CCC(=O)Nc1nc2ccccc2[nH]1 | inconclusive [inhibitor, single point] |
| COCCCn1cnc2c(c1=O)c1nc3ccccc3nc1n2-c1ccc(C)cc1 | inconclusive [inhibitor, partial curve] |
| CS(=O)(=O)N(CC(=O)N1CCCCCC1)c1ccc(Cl)cc1 | inconclusive [inhibitor, partial curve, poor fit] |
| Cc1ccc(S(=O)(=O)N2CCCCC2)cc1C(=O)NC1CC(C)(C)NC(C)(C)C1 | inconclusive [inhibitor, full curve, poor fit] |
| Cc1cccc2nc(CSc3nc4[nH]ncc4c(=O)n3-c3ccccc3Cl)cc(=O)n12 | inconclusive [inhibitor, single point] |
| O=C(c1cccs1)N(CCN1CCCCC1)CC1CCCN(C2CCCC2)C1 (stereo unspecified) | inactive |
| COC(=O)[C@]1(C)N[C@H](c2ccc(SC3CCCCC3)cc2)[C@@H]2C(=O)N(C)C(=O)[C@@H]21 | inconclusive [inhibitor, full curve, poor fit] |
| Cc1ccc(S(=O)(=O)N/N=C/c2cccc(OC3CSC3)c2)cc1 | inconclusive [inhibitor, partial curve, poor fit] |
| O=C(Oc1cccc2cccnc12)c1cccs1 | inactive |
| COc1ccc(-c2[nH]ncc2C(=O)NCc2cccc(OC)c2)cc1 | inconclusive [inhibitor, single point] |
| COc1cccc(CNCc2cccn2-c2nnc(N3CCN(c4ccccc4)CC3)s2)c1 | inactive |
| COP(=O)(OC)C(Nc1ccc(C)cc1)c1ccc([N+](=O)[O-])cc1 (stereo unspecified) | inconclusive [inhibitor, partial curve] |
| C=CCOc1cccc(/C=N/NC(=O)CN(c2cc(Cl)ccc2OC)S(=O)(=O)c2ccc(C)c([N+](=O)[O-])c2)c1 | inconclusive [inhibitor, partial curve] |
| Cc1ccc(N2C(=O)N(CC(=O)N3CCCc4ccccc43)C(=O)C2C)cc1 (stereo unspecified) | inconclusive [inhibitor, full curve] |
| CS(=O)(=O)c1ccc(N)c(SSc2cc(S(C)(=O)=O)ccc2N)c1 | inconclusive [inhibitor, partial curve] |
| COc1ccc(Cl)cc1N(CC(=O)N1CCCCCC1)S(C)(=O)=O | inconclusive [inhibitor, full curve, poor fit] |
| O=C(Nc1ccc(N2CCOCC2)cc1)c1ccc(-c2ccccc2[N+](=O)[O-])o1 | inconclusive [inhibitor, partial curve] |
| COc1ccc(OC)c(C(=O)COC(=O)c2ccccc2O)c1 | inactive |
| O=c1oc2ccccc2c(N2CCCCC2)c1CN1CCCC1 | inconclusive [inhibitor, single point] |

| Structure (SMILES) | Potency |
| --- | --- |
| COc1ccccc1NC(=O)CSc1nnnn1-c1ccc(C)cc1 | inconclusive [inhibitor, full curve, poor fit] |
| Cc1ccc2c(nc3s/c(=C/c4cccs4)c(=O)n32)c1C | inconclusive [inhibitor, full curve, poor fit] |
| CC1CN(C2CCN(C(=O)COc3ccc(Cl)cc3)CC2)CC(C)O1 (stereo unspecified) | inconclusive [inhibitor, single point] |
| COc1ccc2[nH]c(C)c(CCNC(=S)Nc3cc(C)ccc3C)c2c1 | inconclusive [inhibitor, partial curve] |
| COc1ccc(N(CC(=O)NC2CCCC2)C(=O)CCC(=O)Nc2nc(C)cs2)cc1OC | inconclusive [inhibitor, full curve, poor fit] |
| CCN1CCCC1CNC(=O)c1cc2c(-c3cccc(OC)c3)nn(C)c2s1 (stereo unspecified) | inconclusive [inhibitor, full curve] |
| O=C1NC(=O)/C(=C\c2ccccc2Oc2ccc(F)c(F)c2)S1 | inconclusive [inhibitor, partial curve] |
| Cc1ccc(Cl)cc1N1CCN(c2cccc[n+]2C)CC1 | inconclusive [inhibitor, partial curve, poor fit] |
| CCOC(=O)c1ccccc1NC(=O)COC(=O)C1CCCC1 | inactive |
| Cc1oc2ncn(C)c(=O)c2c1C(=O)Nc1ccc(F)cc1 | inactive |
| O=C(NC1CCCC1)C(c1cccnc1)N(Cc1ccccc1)C(=O)c1csnn1 (stereo unspecified) | inconclusive [inhibitor, partial curve, poor fit] |
| N=C1/C(=C\c2ccc(-c3cccc(C(=O)O)c3)o2)C(=O)N=C2SC=C(c3ccccc3)N12 | active: 56.2 µM |
| NNC(=O)c1cc(C23CC4CC(CC(C4)C2)C3)nc2ccccc12 | inconclusive [inhibitor, full curve, poor fit] |
| CCN1C(=O)C(CC(=O)Nc2cccc(C(C)=O)c2)S/C1=N\c1ccccn1 (stereo unspecified) | inconclusive [inhibitor, partial curve] |
| COc1ccc(N/C(=N/c2nc(C)cc(C)n2)NC(=O)c2ccccc2)cc1 | inactive |
| CCCCC/C(=N\NC(=O)CCC(=O)NCc1ccccc1)c1ccccc1 | inconclusive [inhibitor, partial curve] |
| On1ccccc1=S | inconclusive [inhibitor, full curve, poor fit] |
| Cc1cn(COC/C=C/c2ccccc2)c(=O)[nH]c1=O | inconclusive [inhibitor, partial curve] |
| O=C(NCC(=O)N(Cc1cccs1)C(C(=O)NC1CCCCC1)c1ccco1)c1cccs1 (stereo unspecified) | inconclusive [inhibitor, partial curve, poor fit] |
| Cc1cc(C)nc(Sc2c(C)n[nH]c2C)n1 | inconclusive [inhibitor, full curve, poor fit] |
